# Test results reported in the supplement of paper PMC12217912.
# The list shows a part of the results. Sequences were assembled here from the parent chain. Values near 0.05 are background.
# B1: TEV protease; numbered along this chain (parent)
# chain: MGESLFKGPRDYNPISSSICHLTNESDGHTTSLYGIGFGPFIITNKHLFRRNNGTLVVQSLHGVFKVKDTTTLQQHLVDGRDMIIIRMPKDFPPFPQKLKFREPQREERICLVTTNFQTKSMSSMVSDTSCTFPSGDGIFWKHWIQTKDGQCGSPLVSTRDGFIVGIHSASNFTNTNNYFTSVPKNFMELLTNQEAQQWVSGWRLNADSVLWGGHKVFMVKPEEPFQPVKEATQL
# Variants of: B1
# Test: raw area under fraction-flipped curve 0-4 h after induction (AUC4h, not background-subtracted), DNA-recorder readout of cleavage of the substrate (dimensionless); higher = more cleavage of the substrate by the protease variant
# Conditions: temperature: 34 °C; time window: 0-4 h after rhamnose induction
# 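Further: Bxb1 expression induced with 0.2% (w/v) L-rhamnose at OD600 near 0.5, cultures sampled hourly, flipped fraction per protease–substrate barcode pair counted by paired-end Illumina sequencing.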
Variant,area with substrate ENLYFHS,area with substrate ENLYFIS,area with substrate ENLYFMS,area with substrate ENLYFNS,area with substrate ENLYFRS,area with substrate ENLYFSS,area with substrate ENLYFES,area with substrate ENLYFFS,area with substrate ENLYFKS,area with substrate ENLYFWS,area with substrate ENLYFYS,area with substrate ENLYFGS,area with substrate ENLYFPS,area with substrate ENLYFTS,area with substrate ENLYFVS,area with substrate ENLYFCS,area with substrate ENLYFDS,area with substrate ENLYFLS
C131T,0.0558,0.0584,0.0854,0.071,0.0495,0.0679,–,–,–,–,–,–,–,–,–,–,–,–
S124E,0.0525,0.0554,–,–,0.203,0.065,0.0508,0.0635,0.0653,0.0538,0.0637,–,–,–,–,–,–,–
D69I,–,0.0379,0.0565,–,0.0562,0.0577,0.0564,0.0671,–,0.075,–,0.0545,0.0499,0.0517,0.0414,–,–,–
G202L,–,0.0599,0.0658,0.0664,–,–,0.0043,0.0798,0.0706,0.0599,–,–,0.0631,–,0.0606,–,–,–
G202M,0.0523,0.0543,0.0567,–,–,0.042,0.0585,0.0568,0.051,–,0.0282,–,0.0541,0.0552,0.0528,0.057,0.0438,0.0621
S154P,0.0444,0.0622,0.0556,0.055,0.0642,0.0678,–,0.0628,–,0.0615,–,–,–,0.0585,0.0651,–,–,–
T119H,–,–,0.0811,0.0689,0.0555,–,–,–,–,–,–,–,0.0688,0.0549,–,–,0.0634,–
G35P,–,–,–,–,0.036,–,0.0456,0.0483,–,–,–,–,–,–,–,–,0.0413,–
N193I,–,0.0631,0.0674,0.075,0.0403,–,0.0603,0.0688,–,–,–,–,0.0573,0.0658,0.0511,–,–,–
L156V,0.067,0.0635,0.0717,0.0648,0.062,0.0688,0.0666,0.0303,0.0562,0.0408,0.0509,0.0615,0.0599,–,–,–,0.0573,0.0584
L205E,0.0557,0.0532,–,0.0628,0.0609,–,0.0656,0.0699,0.0588,0.0513,0.0645,0.035,0.0678,–,0.0557,0.0459,–,0.0785
K148F,–,0.0564,0.0705,0.0696,–,–,–,0.0883,0.0699,0.0648,–,–,0.0689,0.0633,–,–,–,–
P14R,–,0.0638,0.07,0.046,–,–,0.0636,0.072,0.0538,0.0555,–,0.0603,0.0731,0.0513,0.0441,–,0.0658,–
D79I,–,0.0504,–,–,0.0746,0.0425,–,0.0976,–,0.0671,–,–,0.0552,–,–,–,–,–
F226A,–,0.0514,0.0548,0.0651,–,–,0.0734,0.0991,0.0628,–,0.0441,–,0.0653,0.0458,0.0642,–,–,–
G8R,–,–,0.0656,0.0604,0.0826,–,–,0.0624,–,–,–,–,–,0.0714,–,–,–,–
R81E,–,0.0544,0.0523,0.0566,0.0567,0.0667,0.0496,0.0561,–,–,0.0567,0.0552,0.0603,0.0573,–,–,0.0528,–
G80R,0.057,0.0548,0.0612,–,0.0469,0.0498,–,0.0643,0.0486,0.0449,–,0.0625,–,0.0558,–,–,–,0.0577
S60Q,0.062,0.0487,0.0591,–,–,–,0.0714,0.0837,–,0.0319,0.0493,–,0.0518,0.0346,–,–,0.0545,0.027
Y179T,–,0.0598,0.0493,0.0405,–,0.0691,0.0582,0.0685,–,–,0.0824,0.0483,–,–,0.07,–,0.0232,0.0682
Y179L,0.0551,0.0534,0.0706,0.058,–,0.0563,0.0609,0.0648,0.0471,–,0.0557,–,–,0.0577,–,–,–,0.0513
R102Q,–,0.0465,0.0443,0.0502,–,0.035,0.0497,0.0501,0.0097,–,0.0489,–,0.0473,0.0334,–,–,–,–
G214A,–,0.053,0.0617,0.0639,–,0.0461,–,0.0728,0.0547,0.0524,0.0708,–,0.0585,0.0554,–,–,–,–
N175T,0.0702,0.0561,0.0584,0.0618,0.0586,–,0.0449,0.0752,0.0582,0.0613,–,–,0.0697,–,0.0526,–,–,–
L211V,–,–,0.0701,0.0507,0.0624,–,0.071,0.0592,–,0.0591,0.0536,0.0339,0.0629,–,–,–,–,–
L211C,0.0801,0.0534,–,0.06,0.0627,–,–,0.0645,0.074,–,–,0.07,0.0548,0.0785,0.0577,0.0664,–,0.0487
W203C,–,0.0594,0.0592,–,0.0557,–,0.083,0.0713,0.0551,0.0543,–,–,–,0.059,–,0.0434,0.061,0.0486
V220A,0.0639,0.0582,0.0669,–,–,–,0.0592,0.0708,0.0653,0.0578,0.0618,0.0661,0.0518,–,–,–,0.057,0.0595
K230L,–,0.0557,0.0645,–,–,0.0689,–,0.0744,0.0768,0.0549,0.055,–,0.0564,0.0585,–,0.0653,0.0791,–
E223C,0.0753,0.0595,0.0624,–,0.0686,0.0653,0.0681,0.0792,0.0739,–,0.0545,0.0537,0.068,0.0538,0.0622,–,0.092,0.0632
